# Results taken from PubChem BioAssay AID1460 (National Center for Advancing Translational Sciences (NCATS), 2008).
# Screen size: about 270,000 compounds; about 5,800 (2.1%) were called active. This list was built around the results that the source calls inconclusive (neither active nor inactive); the mix of calls is not that of the screen. The call rests on the fitted dose curve; in most records, active means well fitted inhibition curve with a large enough effect; inconclusive means small, poorly fitted or top-dose-only effect; inactive means flat fitted curve, though single readings scatter. Where the call is inconclusive, the potency comes from a doubtful curve fit.
# Target: Microtubule-associated protein tau (Homo sapiens) (UniProt P10636)
# Test: qHTS for Inhibitors of Tau Fibril Formation, Thioflavin T Binding; further: nearly all actives have a fitted effect of over 55% in size
# Settings: recombinant tau K18 P301L (four-repeat tau fragment), heparin-induced fibrillization, ThT fluorescence; series mostly up to 57.4 µM
# Summary of the method: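 K18 P301L tau (15 uM + 0.24 uM Alexa 594-tagged), heparin 20 uM, NaOAc pH 7, 6 h 37 C; ThT 30 uM, 1 h RT, ex 450/em 510 nm.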
# Potency means the concentration at half of the fitted maximal effect; tags describe the fitted curve by direction and shape.
# UniProt P10636, sequence (P10636 whole entry, looked up): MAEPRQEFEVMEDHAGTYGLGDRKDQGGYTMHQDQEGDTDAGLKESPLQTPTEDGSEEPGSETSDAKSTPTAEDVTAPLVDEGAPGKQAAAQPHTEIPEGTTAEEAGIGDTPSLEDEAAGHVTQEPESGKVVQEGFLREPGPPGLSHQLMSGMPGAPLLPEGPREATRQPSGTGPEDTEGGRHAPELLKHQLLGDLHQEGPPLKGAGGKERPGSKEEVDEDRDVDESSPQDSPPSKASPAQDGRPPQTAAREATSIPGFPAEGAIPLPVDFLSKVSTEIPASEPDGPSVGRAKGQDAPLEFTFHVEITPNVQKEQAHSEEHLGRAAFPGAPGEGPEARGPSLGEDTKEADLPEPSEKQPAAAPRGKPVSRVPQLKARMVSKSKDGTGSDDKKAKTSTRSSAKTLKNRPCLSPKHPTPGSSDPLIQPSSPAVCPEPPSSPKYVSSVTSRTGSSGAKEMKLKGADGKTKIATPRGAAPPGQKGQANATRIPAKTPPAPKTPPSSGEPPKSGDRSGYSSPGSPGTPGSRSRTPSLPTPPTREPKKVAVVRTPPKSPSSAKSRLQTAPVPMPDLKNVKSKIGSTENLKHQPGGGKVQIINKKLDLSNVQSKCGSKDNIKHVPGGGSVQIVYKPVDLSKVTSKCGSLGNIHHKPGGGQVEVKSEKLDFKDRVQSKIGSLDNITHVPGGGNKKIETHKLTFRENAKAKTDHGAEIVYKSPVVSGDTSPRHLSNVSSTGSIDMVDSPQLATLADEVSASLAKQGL
row,SMILES,Potency
1,N/C(=N\OC(=O)c1ccc(Cl)c([N+](=O)[O-])c1)c1ccccn1,active: 8.91 µM
2,CCCCC1=CC2=C(c3ccco3)C(=O)C(C)(OC(=O)c3ccc(OC)cc3)C(=O)C2=CN1CCCN(CC)CC (stereo not given),"inconclusive: 28.2 µM [inhibitor, single point]"
3,O=C(NC(=S)NCc1ccc(-c2nc3ccccc3s2)cc1)c1ccco1,inactive
4,Nc1nc(-c2ccc(Br)s2)c(Br)s1,"inconclusive: 15.8 µM [inhibitor, partial curve]"
5,Cc1ccc(N2C(=O)[C@@H]3CSC(c4ccc(Cl)cc4)N3C2=O)cc1 (stereo not given in full),inactive
6,Cc1ccc2occ(CC(=O)N(Cc3ccc(Cl)cc3)Cc3ccco3)c2c1,"inconclusive: 17.8 µM [inhibitor, single point]"
7,O=C(O)c1cnc(-c2ccccc2)nc1Sc1cccc(Cl)c1,"inconclusive: 39.8 µM [inhibitor, partial curve, poor fit]"
8,Cc1ccc(-n2c(SCC(N)=O)nnc2-c2ccc(S(=O)(=O)N3CCCCC3)cc2)c(C)c1,inactive
9,COC(=O)c1c(-c2ccc(Cl)cc2)noc1N1CCN(c2ccccc2OC)CC1,"inconclusive: 14.1 µM [inhibitor, partial curve, poor fit]"
10,O=C(c1ccc2c(c1)OCCO2)N1CCN(c2ccc([N+](=O)[O-])cc2)CC1,"inconclusive: 7.94 µM [inhibitor, partial curve]"
11,Cc1ccc(-c2csc3ncnc(Sc4nnc(CN5CCCCCC5=O)o4)c23)cc1,"inconclusive: 11.2 µM [inhibitor, partial curve]"
12,CCCn1c(Nc2ccccc2C)nc2ccccc21,inactive
13,CCc1cccc(NC(=O)Nc2ccc3c(c2)OCO3)c1,"inconclusive: 5.01 µM [inhibitor, partial curve]"
14,Cc1onc(-c2c(Cl)cccc2Cl)c1C(=O)NC(=S)Nc1sc2c(c1C(N)=O)CCC(C)C2 (stereo not given),inactive
15,O=C(/C=C/NNC(=O)c1ccc(Br)cc1)c1ccccc1,active: 25.1 µM
16,O=[N+]([O-])c1ccc(NC2CCN(Cc3ccccc3)CC2)c([N+](=O)[O-])c1,"inconclusive: 39.8 µM [inhibitor, single point]"
17,CN(C)N=C1c2cc(S(=O)(=O)N3CCOCC3)ccc2-c2ccc(S(=O)(=O)N3CCOCC3)cc21,"inconclusive: 22.4 µM [inhibitor, partial curve]"
18,NS(=O)(=O)c1ccc(NC(=O)NC2CCCCC2)cc1,inactive
19,COc1ccc2nc(NC(=O)CN(c3ccc(C)cc3)S(=O)(=O)c3c(C)nn(C)c3C)sc2c1,inactive
20,CCOC(=O)/C(C#N)=C/c1cccc(F)c1,"inconclusive: 12.6 µM [inhibitor, partial curve]"
21,CC1Cc2ccccc2N1C(=S)Nc1cccc(S(=O)(=O)N(C)C)c1 (stereo not given),inactive
22,COc1cccc(CNC(=O)c2ccc(-n3c(C)cc4c3CCCC4)cc2)c1,"inconclusive: 39.8 µM [inhibitor, single point]"
23,Cc1noc(-c2ccccc2OCC(=O)Nc2ccccc2[N+](=O)[O-])n1,"inconclusive: 11.2 µM [inhibitor, partial curve]"
24,CCOc1ccccc1N1CC(c2nc3ccccc3n2CCCOc2ccc(OC)cc2)CC1=O (stereo not given),"inconclusive: 31.6 µM [inhibitor, single point]"

row,SMILES,Potency
1,CC(C)c1nc2ccc(C(=O)NCc3ccccc3Br)cc2o1,inactive
2,CCc1ccc(C(=O)CC2(O)C(=O)N(Cc3ccc(C)cc3)c3ccccc32)cc1 (stereo not given),"inconclusive: 25.1 µM [inhibitor, partial curve, poor fit]"
3,COC(=O)[C@H]1C(OC)[C@@H](OC(=O)c2cc(OC)c(OC)c(OC)c2)C[C@@H]2CN3CCc4c([nH]c5cc(OC)ccc45)[C@H]3C[C@H]21 (stereo not given in full),active: 10 µM
4,Cc1cc(N/N=C/c2ccccc2Br)nc2ccccc12,"inconclusive: 14.1 µM [inhibitor, partial curve]"
5,Cc1ccc(-n2c(CCC(=O)O)ccc2-c2cccs2)cc1Cl,"inconclusive: 22.4 µM [inhibitor, partial curve]"
6,C(=C\c1ccccc1)/C=N/N1CCN(c2ccccn2)CC1,"inconclusive: 5.01 µM [inhibitor, partial curve]"
7,Cc1nc([N+](=O)[O-])c(Br)n1Cc1ccccc1,"inconclusive: 22.4 µM [inhibitor, partial curve, poor fit]"
8,Cc1cscc1NC(=O)/C=C/C(=O)O,"inconclusive: 28.2 µM [inhibitor, partial curve, poor fit]"
9,Cc1ccc(SCCNC(=O)/C=C/c2cccc([N+](=O)[O-])c2)cc1,"inconclusive: 31.6 µM [inhibitor, partial curve]"
10,COCCNC(=O)c1onc(CSc2ccc(F)cc2)c1C(=O)NCCOC,inactive
11,CNC(=S)N=Nc1c(O)[nH]c2ccc(C(C)C)cc12,active: 15.8 µM
12,Cc1cc(O)c(C(c2ccccc2)N2CCN(c3ccc(F)cc3)CC2)c(=O)n1Cc1ccco1 (stereo not given),"inconclusive: 25.1 µM [inhibitor, partial curve, poor fit]"
13,CCC(C)(C)n1nnnc1CN1CCN(C(c2ccccc2)c2ccccc2)CC1,inactive
14,Cc1ccc(C(=O)CSc2nnc(COc3cccc4cccnc34)o2)cc1,"inconclusive: 1 µM [inhibitor, full curve]"
15,CN1CCN(C2=C(Cl)C(=O)N(c3ccc(Cl)cc3)C2=O)CC1,active: 25.1 µM
16,CCN1C=CC2=C(C#N)C(N)C(C#N)(C#N)C(c3ccccc3C(F)(F)F)C2C1 (stereo not given),"inconclusive: 8.91 µM [inhibitor, partial curve]"
17,CN(C)c1ccc(/C=C2\N=C(c3ccc(Cl)c([N+](=O)[O-])c3)NC2=O)cc1,active: 0.891 µM
18,CN(C)CCCn1c(-c2ccc(Cl)cc2)csc1=Nc1ccccc1,"inconclusive: 22.4 µM [inhibitor, single point]"
19,O=C1CC(N(O)C2CC(=O)N(Cc3ccccc3)C2=O)C(=O)N1Cc1ccccc1 (stereo not given),inactive
20,CCOC(=O)c1sc2ncn(/N=C/c3cccnc3)c(=O)c2c1C,"inconclusive: 14.1 µM [inhibitor, partial curve]"
21,COc1ccc(N2CCN(Cc3nc4c(c(=O)n(C)c(=O)n4C)n3C(C)C)CC2)cc1,inactive
22,Cc1ccc(-c2cn3nc(N4CCCC(C(=O)NCc5ccc(F)cc5)C4)sc3n2)cc1 (stereo not given),"inconclusive: 7.08 µM [inhibitor, partial curve]"
23,CC(C)(C)c1ccc(C(=O)N2CCCC(c3nc4c(nnn4Cc4cccc(F)c4)c(=O)[nH]3)C2)cc1 (stereo not given),"inconclusive: 3.55 µM [inhibitor, full curve, poor fit]"
24,CC(=O)Nc1ccc(N=Cc2c(O)c(C(=O)Nc3ccccc3)cc3ccccc23)cc1,active: 12.6 µM

row,SMILES,Potency
1,CCn1c(=O)cc(SCC(=O)Nc2ccc(OC)c(OC)c2)c2ccccc21,"inconclusive: 31.6 µM [inhibitor, partial curve]"
2,CCN1CCSc2ccc(C(=O)NCc3cccc(Br)c3)cc21,"inconclusive: 14.1 µM [inhibitor, partial curve]"
3,CCOc1ccc(NC(=O)CSc2c3c(nc4ccccc24)CCCC3)cc1,"inconclusive: 2.51 µM [inhibitor, full curve]"
4,COc1ccc2cc(CNc3ccc(C)cc3)c(=O)n(CC(=O)Nc3ccc(C)cc3Cl)c2c1,inactive
5,Cc1cc(Oc2ccccc2)nc(NCc2ccccc2)n1,"inconclusive: 39.8 µM [inhibitor, single point]"
6,C=CCOC(=O)/C=C/NC(=O)/C=C/C=C/CCCCCCCC(C)O (stereo not given),"inconclusive: 0.891 µM [inhibitor, full curve]"
7,Cc1cccc(-n2cc(CN3CCN(c4ccccn4)CC3)c(-c3cccc(F)c3)n2)c1,"inconclusive: 31.6 µM [inhibitor, single point]"
8,O=C(CN1C(=O)NC2(CCCC2)C1=O)N1CCN(C(=O)c2ccco2)CC1,inactive
9,O=C(N/N=C/c1ccc(Br)s1)c1ccccn1,inactive
10,CCCN(CCC)C(=O)Cn1c(SCc2cccc(F)c2)nc2cccnc21,inactive
11,CCN1CCN(c2cc(C)c3cc(NC(=O)Cc4ccc(OC)c(OC)c4)ccc3n2)CC1,"inconclusive: 28.2 µM [inhibitor, partial curve]"
12,Cc1cc(N(C)C)c(C#N)c(NCc2ccccc2)n1,inactive
13,CC(C)Oc1ccc(C(CC(=O)O)NC(=O)C2CCCCC2)cc1 (stereo not given),inactive
14,O=C(CC1Nc2ccccc2NC1=O)NCCCN1CCCCCC1 (stereo not given),"inconclusive: 28.2 µM [inhibitor, partial curve, poor fit]"
15,CCCOc1ccc2c(CC)cc(=O)oc2c1C,"inconclusive: 31.6 µM [inhibitor, single point]"
16,CCS/C(N)=N/N=C/c1cc(C)ccc1O,"inconclusive: 3.98 µM [inhibitor, full curve]"
17,Cc1c(Cl)cccc1-n1c(-c2cccnc2)n[nH]c1=S,inactive
18,Cc1cc(-c2ccccc2)nc(N/N=C/c2cccnc2)n1,inactive
19,COc1cc(/C(C)=N/NC(=O)CSc2nc3ccccc3[nH]2)ccc1O,"inconclusive: 12.6 µM [inhibitor, partial curve]"
20,CCCOc1ccc(CNC(=O)CCCN2C(=O)CSc3c2c(C)nn3-c2ccccc2)cc1,"inconclusive: 15.8 µM [inhibitor, single point]"
21,COc1ccccc1-c1ccc(Nc2ccc(C(=O)N3CCOCC3)cc2)nn1,"inconclusive: 15.8 µM [inhibitor, partial curve]"
22,CCOC(=O)c1csc(NC(=O)c2ccc(OCC)cc2)n1,"inconclusive: 25.1 µM [inhibitor, single point]"
